In PubChem BioAssay (NCI) one finds GI50 and TGI data, which are given here for 36 molecules.

Several values for one entry are separate records, joined by “and”; a condition that tells them apart may be missing. Equal entries are not always repeated.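 Briefly, cells in 96-well plates were exposed to five compound concentrations for 48 h, and endpoints were estimated by linear interpolation. GI50 is the concentration that inhibits growth by half. Definition used: TGI = concentration required for complete inhibition of growth.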

This assay concerns NCI-H322M lung. As to the kind of experiment: inhibition of tumour cell growth, NCI panel, 48 h.
Turning to `CCCCCCCCCCCCCC[n+]1cccc(C(N)=O)c1`, the GI50 is 7.72 µM and the TGI was determined as 23.2 µM.
In the case of `O=C(CC(=O)Nc1ccccc1)NNC(c1cc(N=Nc2ccc(Br)cc2)ccc1O)P(O)O` (stereo unspecified), the TGI was > 10 µM.
For `C/C(=C\CO)CC/C=C(\C)CNc1ccc([N+](=O)[O-])cc1`, the TGI was 41.6 µM.
Regarding `N.N.N.N.N.O=S(=O)([O-])S(=O)(=O)[O-].[Co+3]`, the GI50 was > 100 µM and the TGI is > 100 µM.
On to `COc1ccc(C(=O)c2nc3ccccc3n2CC(=O)c2ccc(Cl)cc2)cc1`, for which the GI50 was > 66.1 µM and the TGI was > 100 µM.
As for `Cc1ccc(-n2nc(C(C)(C)C)cc2NC(=O)NCc2cc(F)ccc2Oc2ccc3c(cnn3CCO)c2)cc1`, the GI50 was 6.47 µM and 7.69 µM; the TGI was > 100 µM.
For `COc1ccc(OC)c2sc(N3C(=O)/C(=C/c4cccc([N+](=O)[O-])c4)N=C3c3ccccc3)nc12`, the TGI is > 100 µM.
For `COc1cc2[nH]c(-c3ccccc3)cc(=O)c2c(OC)c1OC`, the TGI is > 100 µM.
Take `OCc1ccc(N2CCOCC2)cc1Cl`: the GI50 is > 100 µM and the TGI is > 100 µM.
In the case of `O=[N+]([O-])c1cc(Cl)ccc1Sc1ccccc1`, the TGI is > 100 µM.
As for `CC(=O)[CH-]C(=O)c1ccccc1.CC(=O)[CH-]C(=O)c1ccccc1.CC1(C)OCC(C2OC3OC(C)(C)OC3C2[O-])O1.CC[O-].[Ti+4]` (stereo unspecified), the GI50 is 11.2 µM and the TGI amounted to 31.6 µM.
Turning to `O=C1C(C(O)(C(F)(F)F)C(F)(F)F)CCC1C(O)(C(F)(F)F)C(F)(F)F` (stereo unspecified), the TGI was > 100 µM.
Consider `Cc1cc(O)c(-c2cc(O)c(C)cc2O)cc1O`, for which the TGI turned out to be 35.8 µM.
In the case of `CCn1c(-c2nonc2N)nc2ccncc21`, the GI50 is > 25 µM and the TGI is > 25 µM.
For `CC1(O)CCn2c(=O)c3cc4ccccc4cc3c(=O)n2C1O` (stereo unspecified), the TGI is > 100 µM.
Same read-out and setting: the same measure for `CC1OC(c2ccc3c(c2O)C(=O)C2=C(C3=O)C3(O)C(=O)CC(C)(O)CC3(O)C=C2)CC(O)C1O` (stereo unspecified): > 100 µM; for `COc1cc(C2c3cc4c(cc3[C@@H](Nc3ccc5c(c3)OCCO5)C3COC(=O)[C@H]23)OCO4)cc(OC)c1O` (stereo partly specified): 31 µM; for `CN(C)c1cccc2c1C(=O)C=CC21c2ccc(N(C)C)c3c(N(C)C)ccc(c23)C(c2ccccc2)C1c1ccccc1` (stereo unspecified): 43.4 µM.
Still for that read-out and setting: the same measure for `CC(C)N1CN(c2ccccc2)C2(CCN(CCCC(=O)c3ccc(F)cc3)CC2)C1=O`: > 100 µM.
For `COc1ccc(F)c(F)c1C(=O)c1cnc(NC2CCN(S(C)(=O)=O)CC2)nc1N`, the GI50 was 0.804 µM and 0.48 µM; the TGI is > 22.8 µM.
As for `CC(=Nc1ccc(S(N)(=O)=O)cc1)c1c(O)[nH]c2ccccc12`, the GI50 was 15 µM and the TGI was > 25 µM.
On to `O=S1(=O)C[C@@H](NCc2ccccc2)[C@H](NCc2ccccc2)C1`, for which the TGI was > 100 µM.
Regarding `Cc1c2ccncc2c(C)c2c1[nH]c1ccc(O)c(OCC(F)(F)F)c12`, the TGI was found to be 15.6 µM.
Same read-out and setting: the same measure for `CC(=O)n1c(=O)c2cc3c(=O)n(-c4cccc(C#N)c4)c(=O)c3cc2c1=O`: > 100 µM; for `Cc1ccc(NC(=O)/C(Cc2cc(=O)oc3cc(O)ccc23)=N\NC(=O)C[N+](C)(C)C)cc1C`: > 100 µM; for `Cc1cccc(C)c1N1C(=O)C(=O)C(c2nc3ccccc3s2)/C(=N/NC(=O)NN)C1=O` (stereo unspecified): > 100 µM.
Still for that read-out and setting: the same measure for `O=C(CC1(O)C(=O)Nc2c(Cl)ccc(Cl)c21)c1ccc(Cl)cc1Cl` (stereo unspecified): 74.4 µM.
The same measure, in the same setting: in the case of `CCOC(OC1=C(C#N)CCCC1)C(CC)[Se]c1ccccc1` (stereo unspecified) it was > 100 µM; in that of `CCOC(=O)c1sc2ncnc(N)c2c1C`, > 100 µM.
Take `CCOC(=O)C1CCC(=O)N1C(=O)c1ccccc1Cl` (stereo unspecified): the TGI is > 100 µM.
Same read-out and setting: in the case of `O=S1SC(=S)C2C=CC=CC21` (stereo unspecified) it was > 100 µM; in that of `CCCCCCCCCCCCCCCCCCOCC(COCCOCC[N+]1(CCCCCC(=O)[O-])CCCC1)Oc1ncccn1` (stereo unspecified), 4.13 µM; in that of `COc1ccc(NC(C)c2ccncc2)cc1` (stereo unspecified), 44.7 µM.
In turn, `CCCCCCCCCCCC1CC(=O)NCCCN(C)CCCCN(C)CCCN1C` (stereo unspecified) had a TGI of 3.13 µM.
On to `COc1ccc(-c2cnoc2-c2cc(OC)c3c(c2)OCCO3)cc1`, for which the GI50 was 0.0863 µM and the TGI was > 100 µM.
In the case of `COc1cc(C(O)c2ccc3c(c2)OCO3)cc(OC)c1OC` (stereo unspecified), the TGI was > 100 µM.
